Test results published in PubChem BioAssay AID463173 (ICCB-Longwood Screening Facility, Harvard Medical School, 2010).
The campaign covered roughly 52,000 compounds. About 1,700 (3.3%) were called active. Cut-off read from the data, not from the text of the source: active = survival mostly below about 52% (no sharp cut-off); inactive = mostly above about 56%. The list shows a part of the results.

Each compound was assayed on Wild type (assay: growth inhibition of S. aureus wild type versus tarO mutant, primary screen, teichoic acid synthesis inhibitors, RN4220, OD600 (AID 463173)). Conditions: S. aureus RN4220 wild type/DeltatarO growth, OD600, 18 h, active compounds read low, screened at 18.75 µg/mL (by protocol).
`CCC1CCCCN1C(=O)CSc1nnc2c3ccccc3n(CC(=O)O)c2n1` (stereo unspecified) was tested, and the survival was inactive: 126%.
`CCOc1ccc(NC(=O)CSc2nnc(NC(=O)Nc3ccccc3)s2)cc1` was tested, and the survival was inactive: 71%.
For `Cn1c(NN)nc2c(c1=O)C1(CCCC1)Cc1ccccc1-2`, the survival was inactive: 104%.
For `CCOc1ccc(-c2nonc2NC(=O)COc2ccc(C)c(C)c2)cc1OCC`, the survival was inactive: 117%.
`COc1ccc(-c2nn(C)c3sc(C(=O)N4CCN(c5cc(Cl)ccc5C)CC4)cc23)cc1OC` was tested, and the survival was inactive: 83%.
For `O=C(c1ccc2c(c1)N(Cc1cccc(Cl)c1)C(=O)c1ccccc1S2(=O)=O)N1CCN(c2cccc(C(F)(F)F)c2)CC1`, the survival was inactive: 73%.
With `COc1ccc(C(=O)CCC(=O)Nc2cccc(C(C)=O)c2)cc1` the survival was inactive: 72%.
For `COc1ccc(CCNC(=O)Cn2c(=O)c3cccn3c3ccc(F)cc32)cc1OC`, the survival was inactive: 89%.
With `CCOc1ccc(-c2cnc(NCc3cccc(Cl)c3)n2C)cc1` the survival was inactive: 52%.
For `Cc1ccc(Cn2c(=O)n(Cc3ccc(Cl)cc3)c(=O)c3cccnc32)cc1`, the survival was inactive: 86%.
In the case of `COc1cccc(NC(=O)C(=O)NCC(c2cccnc2)N2CCN(c3ccccc3)CC2)c1` (stereo unspecified), the survival is reported as inactive: 107%.
`Cc1ccccc1-n1nc(CO)c(C(=O)NCCc2ccccc2)n1` was tested, and the survival was inactive: 84%.
With `CC1CCc2c(sc(NC(=O)c3ccccc3)c2C(=O)Nc2ccccc2)C1` (stereo unspecified) the survival was inactive: 64%.
With `CCc1cc2c(=O)n(-c3ccccc3)c(SCC(=O)c3cccs3)nc2s1` the survival was inactive: 99%.
In the case of `Cc1cccc(CSc2cn(CC(=O)N3CCCCCC3)c3ccccc23)c1`, the survival is reported as inactive: 90%.
For `COc1ccc(OC)c(CNc2ncnc3onc(-c4ccc(Cl)cc4)c23)c1`, the survival was inactive: 69%.
In the case of `CCOC(=O)CSc1nc2ccc(NC(=O)COc3ccccc3)cc2s1`, the survival is reported as inactive: 98%.
`CCOC(=O)C(C)Sc1nnc(-c2ccc(F)cc2)o1` (stereo unspecified) was tested, and the survival was inactive: 110%.
With `N#CC1=C(S)NC(=O)C(C#N)C12CCCCC2` (stereo unspecified) the survival was inactive: 127%.
With `CCCCN(C)CCNC(=O)C1CCN(c2nc3ccc(CC)cc3s2)CC1` the survival was inactive: 56%.
In the case of `O=C(NCc1ccc(Cl)cc1)c1cnc2sc(N3CCCCCC3)nn2c1=O`, the survival is reported as inactive: 68%.
`CCCOc1ccc(-c2cccc(NS(=O)(=O)c3cc(OC)ccc3OC)c2)nn1` was tested, and the survival was inactive: 78%.
With `O=C(CCC(=O)N1Cc2ccccc2Oc2ncccc21)NCc1ccccc1Cl` the survival was inactive: 88%.
In the case of `Cc1cc(C)n(CCCC(=O)NCCn2nccc2C)n1`, the survival is reported as inactive: 119%.
`COc1ccc(Cl)cc1NC(=O)C1CCN(c2ncnc3c2nc2n3CCCCC2)CC1` was tested, and the survival was inactive: 82%.
With `CCN(CC)c1ccc(NC(=O)c2cnn3c(C(F)F)cc(-c4ccccc4)nc23)cc1` the survival was inactive: 59%.
With `COc1ccc(C(c2c(O)cc(C)n(Cc3ccco3)c2=O)N2CCN(c3ccccc3)CC2)cc1` (stereo unspecified) the survival was inactive: 78%.
For `COc1ccc(OC)c(NC(=O)C2CCN(S(=O)(=O)c3ccc(C)cc3)CC2)c1`, the survival was inactive: 76%.
`COc1cccc(N2C(=O)C(CC(=O)Nc3cccc(F)c3)N(C(C)C)C2=O)c1` (stereo unspecified) was tested, and the survival was inactive: 78%.
With `Cc1cccc(CC(=O)NC2CC(=O)N(c3cccc(F)c3)C2)c1` (stereo unspecified) the survival was inactive: 60%.
With `Cc1cc(N2CCCCC2)nc2ccc(NC(=O)c3ccc(F)cc3)cc12` the survival was inactive: 62%.
With `CCOC(=O)c1c(NC(=O)CSc2cn(CCNC(=O)c3ccc(OCC)cc3)c3ccccc23)sc2c1CCCC2` the survival was inactive: 76%.
For `CCOc1ccc(C(=O)Nc2ccc(S(=O)(=O)N(Cc3ccccc3)c3ccccc3)cc2)cc1`, the survival was inactive: 81%.
`COc1ccc(OC)c(C2CC(=O)N(c3cccc(C)c3)C3=C2C(=O)OC3)c1` (stereo unspecified) was tested, and the survival was inactive: 144%.
In the case of `O=C(c1ccco1)N1CCN(c2ncnc3sc4c(c23)CCC4)CC1`, the survival is reported as inactive: 103%.
In the case of `O=C(COc1ccccc1)Nc1ccc(OCc2cc(=O)n3ccsc3n2)cc1`, the survival is reported as inactive: 91%.
In the case of `COCCNC(=O)CSc1nc(-c2ccc(F)cc2)[nH]c1-c1ccc(Cl)cc1`, the survival is reported as inactive: 76%.
`CC(CNC(=O)Cn1ncc2c3ccccc3n(Cc3cccc(Cl)c3)c2c1=O)c1ccccc1` (stereo unspecified) was tested, and the survival was inactive: 88%.
`CN(C(=O)CSc1nc2ncccc2o1)c1ccc(F)cc1` was tested, and the survival was inactive: 60%.
`Cc1cc(F)ccc1Nc1nc2ccccc2n2nnnc12` was tested, and the survival was inactive: 124%.
In the case of `CNS(=O)(=O)c1cn(CC(=O)Nc2ccc(OC)c(Cl)c2)cc1S(=O)(=O)NC`, the survival is reported as inactive: 88%.
`COc1ccccc1N1CCN(S(=O)(=O)c2ccc(-c3cc(C(F)(F)F)on3)s2)CC1` was tested, and the survival was inactive: 69%.
`O=C(CSc1nc2cc3ccccc3cc2[nH]1)Nc1cccc(C(F)(F)F)c1` was tested, and the survival was inactive: 82%.
With `Cn1c(=O)c2c(ncn2CC(=O)N(CC(=O)NC2CCCCC2)Cc2ccccc2Cl)n(C)c1=O` the survival was inactive: 114%.
`Cc1ccc2c(c1)C(C(=O)O)=Cc1ccccc1O2` was tested, and the survival was inactive: 110%.
In the case of `O=C(Nc1ccc(Cl)cc1)C1C2CCCCC21` (stereo unspecified), the survival is reported as inactive: 116%.
In the case of `CC(C)CCNC(=O)C(=O)Nc1c2c(nn1-c1ccccc1)CS(=O)(=O)C2`, the survival is reported as inactive: 90%.
`COc1cccc(CNc2ncnc3onc(-c4ccc(F)cc4)c23)c1` was tested, and the survival was inactive: 82%.
With `COCc1cc(C)nc2sc3c(c12)NC(c1ccc(NC(C)=O)cc1)N(c1ccc(C)cc1)C3=O` (stereo unspecified) the survival was inactive: 77%.
For `CS(=O)(=O)N1CCN(c2ccccc2F)CC1`, the survival was inactive: 99%.
In the case of `CCOC(=O)c1cc(OC(=O)c2cccc(C)c2)n(-c2ccccc2)n1`, the survival is reported as inactive: 73%.
In the case of `CCN(c1ccccc1)c1nnc(NC(=O)Nc2cccc(C(F)(F)F)c2)s1`, the survival is reported as inactive: 89%.
For `CC(=O)NCCc1nc2ccccc2n1CCCCOc1ccc(Cl)cc1`, the survival was inactive: 95%.
For `O=c1c2ccccc2n(Cc2cccc(Cl)c2)c(=O)n1CCc1ccccc1`, the survival was active: 39%.
In the case of `COCc1cc(C)nc2sc3c(=O)n(-c4cc(C)ccc4C)nnc3c12`, the survival is reported as inactive: 84%.
In the case of `CCOC(=O)c1ccccc1NC(=O)N1CCN2CCCCC2C1` (stereo unspecified), the survival is reported as inactive: 72%.
For `Cc1ccc(C)c(N2CCN(c3ncnc4onc(C)c34)CC2)c1`, the survival was inactive: 97%.
With `CCN1C(=O)/C(=C2\C=Cc3ccccc3N2CC)SC1=S` the survival was inactive: 99%.
In the case of `Cn1cccc1C(C(=O)NC1CCCCC1)N(C(=O)Cn1nnc2ccccc21)c1cnc2ccccc2c1` (stereo unspecified), the survival is reported as inactive: 111%.
`O=C(Cc1ccccc1)N/N=C/c1cccs1` was tested, and the survival was inactive: 113%.
For `COc1ccccc1CCNC(=O)Cc1c(C)c2ccc(O)cc2oc1=O`, the survival was inactive: 74%.
`CC(=O)Nc1nonc1-c1nnc(SCC(=O)Nc2cc(C)ccc2C)n1-c1ccccc1` was tested, and the survival was inactive: 112%.
For `COc1ccc(CNc2nc3c(S(=O)(=O)c4ccccc4)nnn3c3ccc(Cl)cc23)cc1`, the survival was inactive: 89%.
For `CCOc1ccc(Nc2oc(/C=C/c3ccc(F)cc3)nc2C#N)cc1`, the survival was inactive: 111%.
In the case of `Cc1ccc(OCC(=O)Nc2ccc(C(=O)OCc3cc(=O)n4nc(C5CC5)sc4n3)cc2)cc1`, the survival is reported as inactive: 81%.
`COc1ccc(NC(=O)c2oc3c(c2C)-c2nn(Cc4c(F)cccc4Cl)cc2CC3)c(OC)c1` was tested, and the survival was inactive: 92%.
For `Cc1ccc(NC(=O)C(=O)NCC(c2cccnc2)N2CCN(C)CC2)cc1C` (stereo unspecified), the survival was inactive: 89%.
With `O=C(CSc1nc(=O)[nH]c2c1CCCC2)Nc1cc(C(F)(F)F)ccc1Cl` the survival was inactive: 77%.
With `COc1ccc(-c2nnc(Nc3ccc(OCC(N)=O)cc3)c3ccccc23)cc1` the survival was inactive: 90%.
For `Cc1cc(C)c2c(CC(=O)Nc3nnc(C(C)C)s3)coc2c1`, the survival was inactive: 93%.
`Fc1ccccc1CNCCCSc1nnnn1-c1ccccc1` was tested, and the survival was inactive: 87%.
`CCc1ccc(NC(=O)c2cc3ccccn3n2)cc1` was tested, and the survival was inactive: 95%.
For `Cc1nc2cc(C(F)(F)F)ccc2n1C1CCN(C(=O)C2CC2)CC1`, the survival was inactive: 95%.
`O=C1CCSC2(C(=O)N(Cc3ccc(F)cc3)c3ccccc32)N1c1ccccc1` (stereo unspecified) was tested, and the survival was inactive: 83%.
In the case of `CCOC(=O)c1ccccc1NC(=O)CSc1ccc(-c2sc(-c3ccccc3)nc2C)nn1`, the survival is reported as inactive: 57%.
With `Cc1cc(C)n(-c2nc3ccccc3nc2Nc2cccc(C(F)(F)F)c2)n1` the survival was inactive: 86%.
`Cc1c(C(=O)NN)c2cc(O)ccc2n1C` was tested, and the survival was inactive: 107%.
`COc1ccc(C2C(C(=O)Nc3ccccc3)=C(C)Nc3nc(-c4ccccc4)nn32)cc1OC` (stereo unspecified) was tested, and the survival was inactive: 86%.
`COc1ccc(OC)c(-c2nc(Nc3ccccc3C)sc2CC(=O)O)c1` was tested, and the survival was inactive: 82%.
`CC(C)c1ccc(NC(=O)C2CCCN(S(=O)(=O)c3ccc(Br)s3)C2)cc1` (stereo unspecified) was tested, and the survival was inactive: 65%.
In the case of `COc1cccc(C(=O)Nc2ccccc2C(=O)OCc2cc(=O)n3nc(C)sc3n2)c1`, the survival is reported as inactive: 80%.
With `COc1ccc(NC(=O)C(=O)NCCc2ccccc2)cc1OC` the survival was inactive: 72%.
With `CC(C)CCNC(=O)CN1C(=O)COc2ccc(S(=O)(=O)N3CCOCC3)cc21` the survival was inactive: 82%.
`COc1ccc(-n2cc(-c3ccccc3)c3c(SC(C)C(C)=O)ncnc32)cc1` (stereo unspecified) was tested, and the survival was inactive: 67%.
With `CCc1ccc(NS(=O)(=O)c2ccc3[nH]cc(C(=O)NC4CCCC4)c(=O)c3c2)cc1` the survival was active: 9%.
In the case of `CCOC(=O)c1cccc(NC(=O)c2cc3c(Cl)nc4ccc(C)cc4c3s2)c1`, the survival is reported as inactive: 116%.
For `COc1cc(OC)c(OC)cc1CN1CCc2nc(N3CCN(c4ncccn4)CC3)ncc2C1`, the survival was inactive: 80%.
In the case of `Fc1ccc(-c2cc(-c3nc(-c4cccc(Cl)c4)no3)[nH]n2)cc1`, the survival is reported as inactive: 75%.
With `CCc1ccc(CNC(=O)c2ccc3c(c2)nc2n3CCOC2)cc1` the survival was inactive: 111%.
With `CCN1CCN(C(=O)c2ccc3c(c2)N(Cc2cccc(Cl)c2)C(=O)c2ccccc2S3(=O)=O)CC1` the survival was inactive: 75%.
In the case of `COc1ccccc1CNC(=O)CSc1ncc2c(n1)-c1ccccc1N(Cc1ccc(C)cc1)S2(=O)=O`, the survival is reported as inactive: 76%.
